Measurements: the supplement of paper PMC7826260
Some of the results follow. Each Rep nickase domain was tested in vitro on the same pool of single strands at 3 µM enzyme and 37 °C for 1 h; the strands have 90 letters, of which the middle is given. The score is log2 (uncut reads / reads without enzyme); uncut sequences lie near 0, cut ones below; no hit call is given. Counts are relative to all reads, so uncut sequences can rise above 0 when many others are cut.

Legend:
Experiment in all cases: uncleaved DNA left, log2 of reads against the no-enzyme library (log2 ratio); higher = less cleavage (more negative = more Rep cleavage of the k-mer); sequences stand for … in CTCGTCCG…ACCGGAGA
[1] = test system: T1, Rep nickase domain of Muscovy duck circovirus
T1 sequence (Rep 1-111, printed without the tag): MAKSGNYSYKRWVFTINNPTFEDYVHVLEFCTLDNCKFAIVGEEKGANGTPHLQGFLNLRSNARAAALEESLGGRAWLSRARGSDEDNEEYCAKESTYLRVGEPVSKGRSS
Protocol: (§1)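 A pool of 90-nt single-stranded DNAs with seven random bases just before the constant AC of the nick site (name = the seven bases) was cut by 3 µM recombinant His6-SUMO-tagged Rep nickase domain (300 nM DNA, 50 mM HEPES pH 8.0, 50 mM NaCl, 1 mM MnCl2, 1 h, 37 °C, three replicates). Uncut DNA was amplified and sequenced.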

[2] = test system: T2, Rep nickase domain of banana bunchy top virus
T2 sequence (Rep 1-94, printed without the tag): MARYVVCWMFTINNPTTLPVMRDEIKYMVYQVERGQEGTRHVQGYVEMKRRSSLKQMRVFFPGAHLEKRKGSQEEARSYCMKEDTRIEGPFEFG
Protocol: as §1

[3] = test system: T3, Rep nickase domain of cabbage leaf curl virus
T3 sequence (Rep 1-116, printed without the tag): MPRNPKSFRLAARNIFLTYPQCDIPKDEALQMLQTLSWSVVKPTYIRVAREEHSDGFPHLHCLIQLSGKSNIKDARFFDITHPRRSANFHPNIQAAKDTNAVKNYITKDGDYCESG
Protocol: as §1

[4] = test system: T4, Rep nickase domain of chickpea chlorotic dwarf virus
T4 sequence (Rep 1-124, printed without the tag): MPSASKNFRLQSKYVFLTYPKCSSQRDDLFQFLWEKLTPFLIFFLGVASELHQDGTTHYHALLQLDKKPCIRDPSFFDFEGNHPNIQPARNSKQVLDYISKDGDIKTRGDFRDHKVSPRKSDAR
Protocol: as §1

[5] = test system: T5, Rep nickase domain of faba bean necrotic yellows virus
T5 sequence (Rep 1-98, printed without the tag): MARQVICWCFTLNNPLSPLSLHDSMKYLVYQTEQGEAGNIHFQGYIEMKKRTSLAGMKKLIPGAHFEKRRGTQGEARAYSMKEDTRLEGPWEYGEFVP
Protocol: as §1

[6] = test system: T6, Rep nickase domain of maize striate mosaic virus
T6 sequence (Rep 1-117, printed without the tag): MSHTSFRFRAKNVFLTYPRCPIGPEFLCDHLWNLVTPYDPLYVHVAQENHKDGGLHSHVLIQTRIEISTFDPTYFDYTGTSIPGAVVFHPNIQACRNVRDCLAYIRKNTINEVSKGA
Protocol: as §1

[7] = test system: T7, Rep nickase domain of porcine circovirus 2
T7 sequence (Rep 2-116, printed without the tag): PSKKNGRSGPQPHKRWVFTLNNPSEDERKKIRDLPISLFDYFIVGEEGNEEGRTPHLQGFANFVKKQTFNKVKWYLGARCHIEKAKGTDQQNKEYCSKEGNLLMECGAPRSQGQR
Protocol: as §1

[8] = test system: T8, Rep nickase domain of tomato golden mosaic virus
T8 sequence (Rep 1-124, printed without the tag): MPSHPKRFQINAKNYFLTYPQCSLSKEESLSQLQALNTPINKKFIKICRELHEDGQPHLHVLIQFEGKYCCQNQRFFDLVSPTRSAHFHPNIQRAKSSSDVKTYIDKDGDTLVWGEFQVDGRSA
Protocol: as §1

[9] = test system: T9, Rep nickase domain of tomato yellow leaf curl virus
T9 sequence (Rep 1-136, printed without the tag): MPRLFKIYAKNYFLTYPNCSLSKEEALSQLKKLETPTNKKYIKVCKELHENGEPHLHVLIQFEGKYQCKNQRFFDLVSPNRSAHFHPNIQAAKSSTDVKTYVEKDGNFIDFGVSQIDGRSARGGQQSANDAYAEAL
Protocol: as §1

[10] = test system: T10, Rep nickase domain of wheat dwarf virus
T10 sequence (Rep 1-137, printed without the tag): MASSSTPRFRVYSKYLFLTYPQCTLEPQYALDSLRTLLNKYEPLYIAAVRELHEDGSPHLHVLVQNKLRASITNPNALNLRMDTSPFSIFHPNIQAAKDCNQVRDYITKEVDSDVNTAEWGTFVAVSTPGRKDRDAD
Protocol: as §1

Sequence | uncleaved DNA left (log2) [1] | uncleaved DNA left (log2) [2] | uncleaved DNA left (log2) [3] | uncleaved DNA left (log2) [4] | uncleaved DNA left (log2) [5] | uncleaved DNA left (log2) [6] | uncleaved DNA left (log2) [7] | uncleaved DNA left (log2) [8] | uncleaved DNA left (log2) [9] | uncleaved DNA left (log2) [10]
TCACACC | -0.0546 | -0.126 | -0.0636 | -0.518 | -0.0702 | -0.613 | -0.311 | 0.0138 | -0.0139 | -0.0797
CGATCGG | 0.0781 | 0.0692 | 0.173 | 0.788 | 0.0278 | 1.33 | 0.147 | 0.0671 | -0.0292 | 0.024
GCTGGAT | -0.0644 | -0.0938 | 0.236 | 1.32 | -0.13 | 1.72 | -0.0301 | -0.0301 | -0.263 | -0.151
GCAGGTC | 0.123 | 0.159 | 0.355 | 0.806 | 0.0606 | 0.502 | 0.24 | 0.154 | 0.215 | 0.0303
ACACGGA | 0.0487 | -0.0296 | -0.26 | -0.0315 | -0.01 | -0.66 | 0.0663 | 0.105 | -0.0386 | 0.0175
ACGGGCT | 0.00493 | 0.127 | -0.194 | -0.676 | -0.0361 | -0.507 | 0.161 | 0.114 | -0.0114 | -0.0164
ACGGTTC | 0.148 | 0.0117 | -0.0241 | -0.336 | 0.0463 | 0.0924 | 0.126 | 0.16 | -0.0528 | 0.0212
TTGTGGC | 0.00563 | -0.00767 | -0.206 | -0.582 | -0.00859 | -0.977 | 0.159 | -0.101 | -0.0391 | -0.0825
ATTGGAG | 0.113 | 0.117 | -0.245 | 0.0676 | 0.215 | -0.775 | 0.39 | 0.0922 | 0.0887 | 0.162
AATGGTC | 0.0208 | -0.152 | 0.0983 | 0.666 | -0.0796 | 0.652 | 0.0484 | 0.002 | -0.0158 | -0.0333
GCCCGTC | -0.0138 | -0.0364 | 0.235 | 0.557 | -0.0261 | 0.334 | 0.0787 | 0.0343 | 0.0857 | 0.06
TAGTCTG | 0.0544 | -0.0282 | -0.000459 | 0.641 | -0.0481 | 1.14 | -1.01 | 0.0461 | -0.14 | 0.00264
GCATCTA | -0.037 | 0.0854 | 0.0461 | -0.228 | -0.0456 | 0.0617 | -0.0395 | 0.0536 | -0.0854 | 0.083
GTACGGG | 0.193 | 0.122 | 0.338 | 0.711 | -0.0454 | 0.642 | 0.145 | 0.136 | -0.0489 | 0.0906
GTGGCGT | -0.138 | -0.0903 | 0.339 | 0.833 | -0.147 | 0.59 | -0.0168 | -0.0471 | -0.11 | 0.0208
TAACGTA | -0.0383 | -0.223 | -1.57 | -2.56 | 0.0129 | -0.733 | -0.197 | -0.0776 | -0.045 | -0.923
AGCAAGG | 0.15 | 0.185 | 0.102 | 0.747 | 0.0729 | 1.56 | 0.249 | 0.229 | 0.0928 | 0.253
AGTACAC | 0.0907 | 0.0589 | 0.239 | 0.366 | 0.0718 | 0.225 | 0.103 | -0.00947 | 0.0459 | 0.0788
TCCTAGG | -0.0697 | -0.108 | 0.514 | 1.42 | -0.122 | 1.69 | 0.0663 | 0.0449 | -0.0519 | -0.0149
TACAGTT | -0.0468 | -0.328 | -2.9 | -2.52 | 0.016 | -0.84 | -3.15 | -0.291 | 0.0264 | -0.533
CCACCTA | -0.202 | -0.00229 | -0.0924 | -1.35 | -0.0403 | -0.778 | -0.322 | -0.155 | -0.0309 | -0.056
GTAGGAA | 0.24 | 0.0845 | 0.572 | 1.29 | 0.0812 | 1.84 | 0.2 | 0.249 | 0.138 | 0.219
CACGACG | -0.0273 | -0.000132 | -0.562 | -0.496 | 0.0648 | -0.939 | 0.154 | -0.0446 | 0.0554 | -0.0607
AATGGAC | 0.035 | 0.021 | 0.318 | 1.12 | 0.00667 | 1.15 | 0.144 | 0.0871 | -0.0816 | 0.0668
GCGATAC | 0.0234 | 0.0422 | 0.0296 | 0.189 | -0.0385 | 0.179 | 0.101 | 0.0128 | -0.0953 | 0.0135
TTTCTGG | 0.0644 | -0.0473 | 0.371 | 0.818 | 0.0733 | 1.03 | 0.0702 | 0.033 | 0.00217 | -0.0323
CTTGGGA | 0.0561 | 0.0155 | -0.268 | -0.083 | 0.205 | -0.828 | 0.147 | 0.0218 | 0.0711 | 0.0546
ACACGGC | -0.00061 | 0.0215 | -0.42 | -0.373 | 0.0348 | -0.937 | 0.209 | 0.0641 | -0.076 | -0.0284
TGTCCCA | -0.164 | 0.0468 | 0.242 | 0.00169 | -0.108 | 0.544 | -0.47 | -0.024 | 0.0594 | -0.0595
GTGCGAA | 0.0337 | 0.0581 | -0.118 | 0.251 | -0.0215 | -0.487 | 0.0383 | -0.0202 | 0.046 | -0.13
